The record followed here is the supplement of paper PMC12217912.

This is one part of the list. The full chains were built here from the parent and the listed change. Inactive controls read about 0.05.

B1: TEV protease; numbered along this chain (parent)
chain: MGESLFKGPRDYNPISSSICHLTNESDGHTTSLYGIGFGPFIITNKHLFRRNNGTLVVQSLHGVFKVKDTTTLQQHLVDGRDMIIIRMPKDFPPFPQKLKFREPQREERICLVTTNFQTKSMSSMVSDTSCTFPSGDGIFWKHWIQTKDGQCGSPLVSTRDGFIVGIHSASNFTNTNNYFTSVPKNFMELLTNQEAQQWVSGWRLNADSVLWGGHKVFMVKPEEPFQPVKEATQL
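Note: Bxb1 expression induced with 0.2% (w/v) L-rhamnose at OD600 near 0.5, cultures sampled hourly, flipped fraction per protease–substrate barcode pair counted by paired-end Illumina sequencing.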

Variants of B1 are the subject of the test. Kind of test: raw area under fraction-flipped curve 0-4 h after induction (AUC4h, not background-subtracted), DNA-recorder readout of cleavage of the substrate (dimensionless); higher = more cleavage of the substrate by the protease variant. Conditions: temperature: 34 °C; time window: 0-4 h after rhamnose induction.
On to F163G, for which the “area with substrate ENLYFMS” value turned out to be 0.0587.
With L205P, the “area with substrate ENLYFIS” value was determined as 0.057, the “area with substrate ENLYFKS” value was found to be 0.0486, the “area with substrate ENLYFPS” value was 0.0632 and the “area with substrate ENLYFRS” value came to 0.0514. Besides, the “area with substrate ENLYFVS” value was 0.0603.
Regarding Q97V, the “area with substrate ENLYFLS” value worked out at 0.0599, the “area with substrate ENLYFPS” value came out at 0.0447 and the “area with substrate ENLYFVS” value stood at 0.0856.
For Y34P, the “area with substrate ENLYFIS” value is 0.0533, the “area with substrate ENLYFMS” value is 0.0451, the “area with substrate ENLYFSS” value was determined as 0.069 and the “area with substrate ENLYFVS” value was determined as 0.0478. Besides, the “area with substrate ENLYFYS” value is 0.0522.
Regarding H62E, the “area with substrate ENLYFIS” value came out at 0.0549, the “area with substrate ENLYFKS” value worked out at 0.0466, the “area with substrate ENLYFMS” value is 0.0637 and the “area with substrate ENLYFNS” value was 0.0794. Further, the “area with substrate ENLYFPS” value amounted to 0.0561, the “area with substrate ENLYFRS” value came out at 0.0666, the “area with substrate ENLYFSS” value amounted to 0.0625 and the “area with substrate ENLYFYS” value is 0.0465.
As for T159W, the “area with substrate ENLYFTS” value was 0.0416 and the “area with substrate ENLYFWS” value was found to be 0.0454.
Regarding Q75L, the “area with substrate ENLYFPS” value was found to be 0.0684.
Regarding L235R, the “area with substrate ENLYFMS” value stood at 0.0591, the “area with substrate ENLYFPS” value stood at 0.0539 and the “area with substrate ENLYFWS” value was 0.0731.
Consider C131L, for which the “area with substrate ENLYFYS” value was 0.0446.
